SMILES strings stand for the structures. Out of some 150,000 compounds screened, about 540 (0.36%) showed an effect of 50% or more. The list shows a part of the results.

The subject of this experiment is Plasmodium falciparum. In words: Primary screen in NF54 nanoGlo assay, in single point, at 2uM, 72h; a lower Z score goes with more inhibition. Type of experiment: functional, Erythrocyte. The note with it: timepoint 72 hour.
On to `CCC(=O)N1CCc2[nH]cnc2C12CCN(C(=O)c1cc(C)ccc1O)CC2`, for which the % Inhibition (in general, the drop in the measured response relative to a control, in per cent) worked out at 2% and the Z score was -0.41.
With `CC(C)CS(=O)(=O)N1CCC(NC[C@H](C)c2ccccc2)CC1`, the “% Inhibition” value is given as 13% and the Z score is on record as -1.29.
The corresponding values for `NC(=O)[C@@H]1CN(S(=O)(=O)c2cccc(C(=O)NC3CCC3)c2)CCO1` are -7% and 0.83.
The corresponding values for `Cc1ccccc1CC(=O)N1CCN[C@H](C)C1` are 4% and -0.72.
Consider `c1ccc(Cc2noc(C3CN(Cc4cccnc4)C3)n2)cc1`, for which the “% Inhibition” value is on record as -15% and the Z score is 2.83.
For the compound `O=C(CN1CCCC1)N[C@@H](c1ccccc1)c1ccc2[nH]c(C(F)(F)F)nc2c1`, the “% Inhibition” value is given as -17% and the Z score was 1.74.
Regarding `CC(C)c1nc(Cn2cnnn2)n(-c2ccc(Cl)cc2)n1`, the “% Inhibition” value is on record as 11% and the Z score is on record as -1.59.
As to `CC1CCCC(C(=O)N2CCC(c3ncc(C(=O)O)s3)CC2)C1` (stereo unspecified), the “% Inhibition” value came to 1% and the Z score was -0.11.
For the compound `CC[C@H]1CCCCN1c1oc(-c2ccc(OCc3ccccc3Cl)cc2)nc1C#N`, the “% Inhibition” value is listed as 0% and the Z score came to 0.06.
For `O=C(Cc1ccsc1)N1CCC[C@H](Oc2cccnn2)C1`, in that order: 0% and 0.03.
The corresponding values for `O=C(NCCCc1ccccc1)c1ccc(CN2C(=O)CCn3nccc32)cc1` are 58% and -2.28.
On to `O[C@H]1CCN(Cc2ccc(OC(F)F)c(Cl)c2)C1`, for which the “% Inhibition” value is -13% and the Z score was 1.47.
With `CCn1c(=O)c(-c2noc(C(=O)NC3CCCCC3)n2)nn(-c2ccc(F)cc2)c1=O`, the “% Inhibition” value was 1% and the Z score is -0.21.
In the case of `CC1OCCC1(C)NC(=O)CCc1c[nH]c2ccccc12` (stereo unspecified), the “% Inhibition” value is listed as -5% and the Z score was determined as 0.82.
`Cc1noc(C)c1NC(=O)CCc1ccccc1Cl`: the “% Inhibition” value is on record as -4% and the Z score came to 0.56.
Consider `CC(C)(CN1C(=O)NC2(CCCC2)C1=O)C(F)(F)F`, for which the “% Inhibition” value is -7% and the Z score stood at 0.92.
For the compound `Cc1ccc(CN2CCNC(=O)[C@@H]2CC(=O)NCc2cnc3c(c2)CCC3)o1`, the “% Inhibition” value is recorded as -5% and the Z score stood at 0.97.
For `Cc1ccc(CN(C)[C@@H](C)C(=O)NC(C)(C)C)c(C)c1`, in that order: -20% and 3.18.
`Cc1ccnc(NC(=O)[C@@H](NC(=O)CC(C)C)C(C)C)c1`: the “% Inhibition” value was -7% and the Z score worked out at 0.86.
`CCN(Cc1c(C)nn(CC)c1C)C(=O)[C@@H]1CC(F)(F)CN1C1CN(S(C)(=O)=O)C1`: the “% Inhibition” value was -7% and the Z score is given as 0.83.
Consider `CC(C)N1C[C@H](O)C[C@H]1c1nc(-c2cccnc2)no1`, for which the “% Inhibition” value was 7% and the Z score is reported as -0.87.
For `COc1cccc(CC(=O)N2CCc3nc(N4CCC(C)CC4)nc(Oc4ccc(F)cc4F)c3C2)c1`, the “% Inhibition” value was -8% and the Z score turned out to be 1.48.
With `Cc1csc(C(=O)N2CCCN(S(=O)(=O)c3c(C)n[nH]c3C)CC2)c1`, the “% Inhibition” value is reported as -11% and the Z score was 1.72.
As to `CC(C)(C)c1nc2ccccn2c1-c1ccc(C(=O)N2CCCNCC2)cc1`, the “% Inhibition” value is 10% and the Z score is recorded as -1.91.
For the compound `CN(Cc1ccc2ccccc2n1)C(=O)CN1C(=O)CNC1=O`, the “% Inhibition” value is -5% and the Z score is on record as 1.03.
On to `CCOC(=O)c1cc(C2CC2)nc2c1c(=O)n(Cc1nc(-c3cccc(Cl)c3)oc1C)c(=O)n2C`, for which the “% Inhibition” value came out at 4% and the Z score is -0.59.
For `CC(O)C(C)S(=O)(=O)Cc1ccc(C(F)(F)F)cn1` (stereo unspecified), the “% Inhibition” value came out at 3% and the Z score is recorded as -0.47.
For `O=C(NCc1ccc(Cl)cc1)N1CC(n2nccn2)C1`, in that order: -21% and 2.45.
As to `CC(C(=O)O)N1CCCC(CN2CCCCCC2)C1` (stereo unspecified), the “% Inhibition” value is listed as -2% and the Z score is listed as 0.23.
`Cc1c(C(=O)N2CCCCC3CCCCC32)cnn1CC(C)C` (stereo unspecified): the “% Inhibition” value is on record as -10% and the Z score amounted to 1.45.
For the compound `O=C(NCCc1c[nH]c2ccccc12)c1ccc2c3c(cccc13)CC2`, the “% Inhibition” value is listed as 0% and the Z score is 0.04.
As to `O=S1(=O)CCC[C@@H]1CNCc1csc(-c2ccccn2)n1`, the “% Inhibition” value is given as -13% and the Z score was 1.51.
Turning to `CC(C)CC(=O)NC(=O)NC1CCCCC1`, the “% Inhibition” value is 1% and the Z score was -0.1.
Take `Cc1nn(CC(=O)NC[C@H](C)n2ccnc2)c(=O)n1Cc1ccccc1`: the “% Inhibition” value is listed as -5% and the Z score amounted to 0.49.
For `CO[C@H]1CCCN(S(=O)(=O)c2cc(-c3cc(C(F)(F)F)on3)oc2C)C1`, in that order: 6% and -1.17.
`C=C(C)CNC(=O)c1c(F)ccc(S(=O)(=O)CC2CC2)c1F`: the “% Inhibition” value amounted to 6% and the Z score is on record as -0.93.
As for `COc1ccc(/C=C/CN2CCC3(CCC(=O)N([C@H]4CCN(C)C4)C3)CC2)cc1`, the “% Inhibition” value is -5% and the Z score was 1.07.
For `Cc1cc(C(=O)N[C@@H](CO)c2csc(C(C)C)n2)ns1`, in that order: 5% and -0.92.
Consider `O=C(NC1CCC(n2cccn2)CC1)c1ccc(Cl)s1` (stereo unspecified), for which the “% Inhibition” value is recorded as 1% and the Z score is -0.2.
The corresponding values for `COCCNC(=O)C1CC2CCCCC2N1S(=O)(=O)c1ccc2c(c1)OCCO2` (stereo unspecified) are 4% and -0.52.
Regarding `Cc1nn(C)cc1S(=O)(=O)N1CCN(C(=O)[C@@H]2CCCO2)CC1`, the “% Inhibition” value was -36% and the Z score is reported as 4.25.
On to `COc1ccc(N2C(=O)[C@@H]3[C@H](CCC(N)=O)N[C@]4(C(=O)Nc5ccccc54)[C@@H]3C2=O)cc1`, for which the “% Inhibition” value is recorded as -4% and the Z score is 0.32.
For the compound `O=C(c1ccno1)N1CCC(c2nc3ccccc3o2)CC1`, the “% Inhibition” value is recorded as -15% and the Z score turned out to be 2.23.
For `CCCc1nc(CN(CC)C(=O)[C@@H](c2ccc(F)cc2)N(C)C)no1`, in that order: -12% and 2.27.
For the compound `CC(NC(=O)C1CCCOC1)(C(N)=O)c1cccc(Cl)c1` (stereo unspecified), the “% Inhibition” value is -3% and the Z score came to 0.64.
`Cc1nc(NCc2ccccc2)sc1-c1ccn(Cc2ccncc2)n1`: the “% Inhibition” value is listed as -9% and the Z score was determined as 1.15.
As to `CCCCN1CCN(C(=O)c2cnc(N)s2)CC1=O`, the “% Inhibition” value was -1% and the Z score is on record as 0.24.
In the case of `CCOCC(=O)N[C@@H](C(N)=O)c1cccc(Br)c1`, the “% Inhibition” value was 0% and the Z score was -0.09.
The corresponding values for `O=C(Nc1nc2c(s1)CN(S(=O)(=O)Cc1cccc(F)c1)CC2)c1ccoc1` are 5% and -0.64.
Consider `CC(Cn1cccn1)C(=O)N1C[C@H]2C[C@H](O)[C@@H](O)C[C@H]2C1` (stereo partly specified), for which the “% Inhibition” value is -7% and the Z score amounted to 1.04.
Take `CN(C)c1ccc(-c2noc(CCN3C(=O)c4ccccc4C3=O)n2)cc1`: the “% Inhibition” value is listed as -10% and the Z score is 1.4.
On to `CN(Cc1ccccc1)C(=O)c1cc(=O)c(OCc2ccccc2)c[nH]1`, for which the “% Inhibition” value amounted to 2% and the Z score is -0.32.
For the compound `O=S(=O)(c1ccc(-c2noc(C3CCCCC3)n2)cc1)N1CCCCC1`, the “% Inhibition” value is -3% and the Z score is listed as 0.54.

Values taken from ChEMBL document CHEMBL4888484, “Replenishing the malaria drug discovery pipeline: Screening and hit evaluation of the MMV Hit Generation Library 1 (HGL1) against asexual blood stage Plasmodium falciparum ,using a nano luciferase reporter read-out” (2022).
